Results as given in paper PMC4336329 (PLoS ONE, 2015).
The campaign covered roughly 310,000 compounds. About 2,200 (0.71%) showed an effect of 50% or more. The effect is printed as a negative number. The list shows a part of the results.

target: human ether-à-go-go-related gene (hERG) potassium channel (human, UniProt Q12809); test: primary screen, population patch clamp on CHO cells stably expressing hERG
Sequence (Q12809 whole entry, looked up): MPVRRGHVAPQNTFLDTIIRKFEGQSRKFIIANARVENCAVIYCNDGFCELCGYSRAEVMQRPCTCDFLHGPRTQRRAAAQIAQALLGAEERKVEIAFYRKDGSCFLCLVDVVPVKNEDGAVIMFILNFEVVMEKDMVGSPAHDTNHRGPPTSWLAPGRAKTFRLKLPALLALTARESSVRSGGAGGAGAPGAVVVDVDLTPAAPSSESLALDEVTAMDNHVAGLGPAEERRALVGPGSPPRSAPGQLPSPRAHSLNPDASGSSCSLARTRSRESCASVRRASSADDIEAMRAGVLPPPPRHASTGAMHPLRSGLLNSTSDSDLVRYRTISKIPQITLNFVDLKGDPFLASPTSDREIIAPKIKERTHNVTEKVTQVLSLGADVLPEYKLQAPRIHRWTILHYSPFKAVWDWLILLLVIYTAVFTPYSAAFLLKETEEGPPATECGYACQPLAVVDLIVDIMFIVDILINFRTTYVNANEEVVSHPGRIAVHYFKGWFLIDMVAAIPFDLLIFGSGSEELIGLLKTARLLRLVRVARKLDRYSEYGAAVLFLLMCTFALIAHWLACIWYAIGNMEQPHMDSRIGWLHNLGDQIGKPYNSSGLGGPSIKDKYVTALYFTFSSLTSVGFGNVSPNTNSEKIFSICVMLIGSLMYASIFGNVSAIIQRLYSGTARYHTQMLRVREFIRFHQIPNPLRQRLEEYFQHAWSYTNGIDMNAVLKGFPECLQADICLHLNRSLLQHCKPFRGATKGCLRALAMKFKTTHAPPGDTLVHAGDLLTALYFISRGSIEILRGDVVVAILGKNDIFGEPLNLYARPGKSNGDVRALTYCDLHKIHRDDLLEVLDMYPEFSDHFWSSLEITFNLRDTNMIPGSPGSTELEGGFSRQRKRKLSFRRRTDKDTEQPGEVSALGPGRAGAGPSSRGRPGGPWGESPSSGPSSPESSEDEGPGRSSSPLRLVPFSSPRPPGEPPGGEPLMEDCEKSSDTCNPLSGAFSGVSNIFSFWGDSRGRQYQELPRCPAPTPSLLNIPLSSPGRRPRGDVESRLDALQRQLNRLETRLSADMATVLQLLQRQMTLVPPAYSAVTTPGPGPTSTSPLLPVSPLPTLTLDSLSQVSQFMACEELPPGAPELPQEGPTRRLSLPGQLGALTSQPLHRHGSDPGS

SMILES	hERG current change (%, negative = inhibition) at 1uM [%]
O=C(O)CCNc1nc(-c2ccccc2)c2cc(Br)ccc2n1	12.6
NC(=O)C1CCN(C(=O)/C=C/c2ccccc2[N+](=O)[O-])CC1	13.1
CC1CCN(c2ccc(NC(=S)NC(=O)c3ccco3)cc2)CC1	6.74
CCN(C/C=C/c1ccccc1OC)Cc1ccccc1	-4.53
O=S(=O)(NCc1cccs1)c1cccc(S(=O)(=O)N2CCCCC2)c1	6.01
O=c1c2[nH]c3ccc(F)cc3c2ncn1CCC1=CCCCC1	16
CC(=O)NC1C(O)OC(CO)C(O)C1O (stereo not shown)	8.64
CCN(CC)S(=O)(=O)c1ccc(NC(=O)c2c(-c3ccccc3)noc2C)cc1	10
CCC1(C(=O)c2ccccc2)C(c2ccc([N+](=O)[O-])cc2)C1(C(=O)OC)C(=O)OC (stereo not shown)	8.4
CC(=O)C[C@H]1c2ccccc2S(=O)(=O)N1C1CCCC1	14.6
CC(C)(C)c1ccc(-c2n[nH]c(=S)n2Cc2ccccc2)cc1	6.75
Cc1c(C(=O)N(C)C2CCCCC2)sc2ncnc(N3CCN(c4ccccc4)CC3)c12	-12.5
COC(=O)c1cc(NC(=O)Cn2c(=O)cnc3ccccc32)cc(C(=O)OC)c1	11.9
CCO/N=C(/c1nonc1N)N1CCN(c2ccc([N+](=O)[O-])cc2)CC1	4.88
OCC1CCCN(C(=S)Nc2ccc(Nc3ccccc3)cc2)C1 (stereo not shown)	5.87
Cc1ccccc1C(=O)NCC(c1ccco1)N1CCc2ccccc2C1 (stereo not shown)	-5.37
Cc1cc2c(sc3c(C)ccc(C)c32)c(C)n1.Cl	11.8
C=CCn1c(-c2ccccc2)ccc(C#N)c1=O	-9.6
NC(=O)C1CCN(Cc2nc3cc(Cl)ccc3c(=O)[nH]2)CC1	3.87
O=C(O)C1CCN(C(=O)c2ccccc2Cl)CC1	7.18

SMILES	hERG current change (%, negative = inhibition) at 1uM [%]
O=C(Nc1ccc(S(=O)(=O)NCCc2ccccc2)cc1)c1ccncc1	13.3
Cc1nc(-c2ccccn2)nc(SCC(=O)c2ccc(F)cc2)c1Cl	12.3
Cc1ccc(C(=O)NS(=O)(=O)c2ccccc2)cc1	2.57
O=C(COc1ccccc1)N1CCN(CCN2C(=O)c3cccc4cccc(c34)C2=O)CC1	10.4
CCn1c(=O)n(CC(=O)Nc2cc(OC)c(OC)c(OC)c2)c(=O)c2ccccc21	-1.15
Cc1ccc(/C=C2\SC(=S)N(C3CCS(=O)(=O)C3)C2=O)cc1 (stereo not shown)	0.713
O=C(O)CC1(CC(=O)NCc2ccc(Cl)cc2)CCCCC1	11.1
CCN(Cc1ccccc1)C(=O)c1ccc(CS(=O)c2ccccc2C)o1 (stereo not shown)	-11.9
COc1ccc(OCC(=O)N/N=C(/C)Cc2ccccc2)cc1	4.14
CC(=O)Nc1ccccc1C(=O)C(=O)Nc1ccc(C)c(C)c1	14.1
CCCCCc1nnc(NC(=O)C2=COCCO2)s1	6.91
COc1ccc(CC(=O)O)cc1O	11.6
COc1cc(C(=O)OCc2cccc(S(=O)(=O)N3CCOCC3)c2)ccc1OCC(C)C	9.62
COC(=O)c1c(NC(=O)/C=C/c2ccco2)sc2c1CCC2	14.3
O=C(O)[C@H](Cc1ccccc1)N1C(=O)c2c(Cl)c(Cl)c(Cl)c(Cl)c2C1=O	4.41
CCOC(=O)CSc1nc2sccc2c(=O)[nH]1	13
CCN(C(=O)COc1ccccc1[N+](=O)[O-])C1CCS(=O)(=O)C1 (stereo not shown)	4.2
O=c1[nH]c(CN2CCN(c3ccccc3)CC2)nc2ccccc12	3.38
COc1cc(C)ccc1OCC(=O)OCC(=O)c1cc(C)n(CC2CCCO2)c1C (stereo not shown)	3.56
Cc1sc(NC(=O)C2CCCO2)c(C(N)=O)c1C (stereo not shown)	14

SMILES	hERG current change (%, negative = inhibition) at 1uM [%]
COc1ccc(Cl)cc1NC(=O)CSc1nc(NS(=O)(=O)c2ccc(C)cc2)cc(=O)[nH]1	7.93
COc1ccc(C)cc1NS(=O)(=O)c1ccc(NC(=O)CN(c2cc([N+](=O)[O-])ccc2C)S(C)(=O)=O)cc1	1.18
O=C1CCCN2N=C(SCC(=O)Nc3ccc([N+](=O)[O-])cc3)SC2=N1	9.52
O=C(Nc1nnc(SCC(=O)N2CCCCC2)s1)c1ccccc1F	12.6
O=C(NCC1CCCO1)C1CC(=O)N(c2cccc(Cl)c2)C1 (stereo not shown)	4.72
CCN(CC)CCNC(=O)Cc1c(C(=O)O)n(C)c2ccccc12	-0.322
COc1ccc(Nc2nc(N)nc(CN3CCN(c4ccc(F)cc4)CC3)n2)cc1	-19.3
Cc1cccc(NC(=O)c2ccccc2O)c1C	7.24
Cc1ccc(NC(=O)c2ccc(=O)n(CC(=O)Nc3ccccc3)n2)cc1	14
CN1CCN(C(=O)/C(=C\c2ccccc2)c2ccccc2)CC1	-43.4
CSc1ccc(/C=C/C(=O)c2ccc(NC(=O)Cc3ccccc3)cc2)cc1	-10.4
COc1ccc(C(=O)N/C(=C\c2ccc(OC)c(OC)c2)C(=O)N2CCCCC2)cc1	12
O=C(NCc1ccccc1)c1nccnc1CO	17.1
CN(Cc1ccc(F)cc1)C(=O)CNC(=O)c1ccc2c(c1)OCO2	26.5
C=CCNc1nc2ccccc2nc1NS(=O)(=O)c1ccc(Cl)cc1	7.59
O=C(/C=C/c1cccc(Br)c1)NC1CCN(Cc2ccccc2)CC1	-27.7
COc1ccccc1OP(=O)(O)Oc1ccccc1OC	8.48
COc1ccc(CCNC2=NCC(C)S2)cc1 (stereo not shown)	14.4
